# Measurements reported in PubChem BioAssay AID588591 (National Center for Advancing Translational Sciences (NCATS), 2011).
# Hit rate of the full screen: of about 390,000 compounds, about 4,700 (1.2%) were called active. Another 4% or so got no clear call; they are omitted. Calls follow the shape of the dose curve; as a rule, active = well fitted inhibition curve with a large enough effect; inconclusive = small, poorly fitted or top-dose-only effect, or another doubt; inactive = no such curve, though single readings can be large or run the other way. Only a part is listed here, and it is no random draw.
# Molecular target: DNA polymerase eta (Homo sapiens) (UniProt Q9Y253)
# Chain of UniProt Q9Y253 (Q9Y253 whole entry, looked up): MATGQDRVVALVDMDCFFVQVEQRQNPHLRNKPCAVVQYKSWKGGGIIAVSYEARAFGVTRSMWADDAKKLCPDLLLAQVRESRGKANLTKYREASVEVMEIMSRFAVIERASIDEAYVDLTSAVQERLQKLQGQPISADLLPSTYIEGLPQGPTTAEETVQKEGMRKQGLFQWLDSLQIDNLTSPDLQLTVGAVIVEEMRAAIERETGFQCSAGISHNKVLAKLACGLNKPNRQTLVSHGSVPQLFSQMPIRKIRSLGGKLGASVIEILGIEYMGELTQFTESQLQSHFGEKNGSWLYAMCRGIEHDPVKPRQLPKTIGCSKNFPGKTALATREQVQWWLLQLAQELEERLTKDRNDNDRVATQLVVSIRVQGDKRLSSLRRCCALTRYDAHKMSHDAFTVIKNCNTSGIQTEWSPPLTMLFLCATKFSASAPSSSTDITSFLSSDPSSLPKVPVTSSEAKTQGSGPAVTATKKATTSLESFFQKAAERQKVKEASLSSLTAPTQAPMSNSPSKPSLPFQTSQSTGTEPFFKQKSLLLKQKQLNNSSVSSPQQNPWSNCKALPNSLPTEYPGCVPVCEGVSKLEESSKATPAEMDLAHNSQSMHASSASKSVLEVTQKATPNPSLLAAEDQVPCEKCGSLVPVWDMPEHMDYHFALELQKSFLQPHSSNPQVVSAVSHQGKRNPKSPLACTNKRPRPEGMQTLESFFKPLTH
# Test: qHTS for Inhibitors of Polymerase Eta
# Conditions: recombinant Pol eta, fluorescent DNA replication assay; series mostly up to 114 µM; activity change, negative = inhibition: at the top concentration
# Summary of the method: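 Pol eta at 10 nM preincubated with compounds 15 min at room temperature; reaction started with fluorescent substrate (50 nM final) and read kinetically at 0 and 10 min.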
# % is scaled to controls: 0 for no effect and ±100 for the full control effect; potency is read from the fitted curve at half-maximal effect.
Compound,"activity change, negative = inhibition",Potency
COc1ccc(C[C@@H]2CN3C(=NC[C@@H]3C)N2CCNC(=O)c2ccc(C)c(Br)c2)cc1,inactive: -10.9%,
CC(C)(C)OC(=O)NCc1ccc(NC(=O)c2nc[nH]c2C(=O)NCCCCCCNC(=O)c2[nH]cnc2C(=O)Nc2ccc(CNC(=O)OC(C)(C)C)cc2)cc1,inactive: 36.1%,
Cc1ccc(CN(C)C(=O)CCc2nc3sc4c(c3c(=O)[nH]2)CCCC4)o1,,active: 22.4 µM
CCN1CC2=C(OC(N)=C(C#N)C2c2cccs2)/C(=C\c2cccs2)C1 (stereo not given),inactive: -27.2%,
O=C(NC(Cc1ccccc1)C(=O)O)/C(=C/c1ccc(Cl)cc1)NC(=O)c1ccco1 (stereo not given),inactive: -17.3%,
O=C(CCl)N(c1ccccc1)c1c[nH]c2ccccc12,,active: 14.1 µM
C#CCNc1c2c(nc3ncnn13)CC(C)CC2 (stereo not given),inactive: 25.5%,
O=C(O)/C=C\C(=O)NNC(=O)c1cc(-c2ccccc2)n[nH]1,inactive: -10.7%,
COc1ccc(S(=O)(=O)/N=C2\C=C(NS(=O)(=O)c3ccccc3)C(=O)c3ccccc32)cc1,,active: 22.4 µM
OCCN1c2ccccc2CCc2ccccc21,inactive: 24.9%,
O=C1CNC(=O)/C1=C/c1ccc(O)cc1,inactive: 0.686%,
Cc1[nH]n(-c2ccccc2)c(=O)c1N=Nc1c(O)cc(S(=O)(=O)N(C)C)c2ccccc12,,active: 89.1 µM
COc1ccc(C(C(=O)NC2CCCC2)N(C(=O)c2snc(C(N)=O)c2N)c2cccc(O)c2)cc1 (stereo not given),,active: 22.4 µM
C[C@H](CO)N1C[C@H](C)[C@@H](CN(C)C(=O)Nc2cccc(Oc3ccccn3)c2)OCc2cnnn2CCCC1=O,inactive: -9.97%,
CCCCn1c(N)c(N(CCOC)C(=O)c2cc(-c3ccco3)nc3ccccc23)c(=O)[nH]c1=O,,active: 11.2 µM
O=C(O)c1ccc(NN=CC2=C(N3CCOCC3)/C(=C/c3ccccc3)CC2)cc1,,active: 39.8 µM
Cc1cc(Br)ccc1NC(=O)CSc1c2c(nc3ccccc13)CCC2,inactive: 19.7%,
CC1(c2ccc(OC(F)F)cc2)NC(=O)N(CC(=O)Nc2cccc(S(N)(=O)=O)c2)C1=O (stereo not given),inactive: 37.8%,
Cc1nn(CCC(=O)Nc2cccc(C#N)c2)c(C)c1S(=O)(=O)N1CCCCC1,inactive: -12.8%,
CN1CCOC1c1ccc(C2OCCN2C)cc1 (stereo not given),,active: 20 µM
COCCn1cnc2c(c1=O)c1nc3ccccc3nc1n2/N=C/c1ccco1,inactive: 34.4%,
COc1ccc(/C=C2\SC(=O)N(CCC(=O)Nc3ccc(S(=O)(=O)Nc4nccs4)cc3)C2=O)cc1,inactive: -15.1%,
COc1ccccc1NC(=O)c1ccc([N+](=O)[O-])o1,inactive: 14.2%,

Compound,"activity change, negative = inhibition",Potency
Cc1ccc(-n2c(CCC(=O)O)ccc2-c2cccs2)cc1C,inactive: 2.45%,
COc1ccc(OCC(=O)Nc2nnc(S(=O)(=O)N3CCCCCC3)s2)cc1,inactive: 0.101%,
COc1ccc(-c2csc(NC(=S)NC(=O)c3cccs3)n2)cc1OC,,active: 20 µM
CCS(=O)(=O)C1=NSC2=NC(=O)/C(=C\c3ccc(OS(=O)(=O)c4ccccc4)c(OC)c3)C(=N)N21,,active: 39.8 µM
CCc1cccc2c(-c3ccccc3)nc(SCC(=O)Nc3ccccc3)nc12,inactive: 14.9%,
O=C(CN1C(=O)C(=O)N(Cc2ccco2)C1=O)Nc1ccccc1,,active: 20 µM
C=CC[C@@H](CC(=O)N(CCO)Cc1ccccc1)C(=O)N[C@@H](COC(=O)[C@@H](CC=C)Cc1ccc(F)cc1)Cc1ccccc1,inactive: -16.9%,
CN(C[C@H](Cc1ccccc1)N(C[C@@H](Cc1cccc2ccccc12)N(CCc1ccccc1)N=O)N=O)N=O,inactive: -2.91%,
C=CCC[C@@H](Cc1ccc(F)cc1)C(=O)OC[C@@H](Cc1c[nH]c2ccccc12)NC(=O)[C@H](CC=C)CC(=O)N(CCO)Cc1ccccc1,inactive: -36%,
Cc1ccc(C)c(NC(=O)Cn2cnc3c(oc4ccccc43)c2=O)c1,inactive: -24.2%,
CCCCCC(=O)N1C[C@@H](O)[C@H](n2cc(COC(=O)c3ccccc3)nn2)C[C@@H]1c1ccc(C)cc1,inactive: -3.23%,
Cc1ccccc1-n1c(-c2ccc(Br)o2)n[nH]c1=S,inactive: 29.6%,
C=C(C)C(=O)Nc1cccc(C2=NOC3(C2)C[C@@H](C(N)=O)N(C(=O)c2cc([N+](=O)[O-])cc([N+](=O)[O-])c2)C3)c1 (stereo not given in full),,active: 20 µM
O=c1c(Cl)c(Cl)cnn1Cc1nnc(-c2ccccc2Br)o1,,active: 79.4 µM
CCCCn1c(SCC(=O)c2ccc(OC)cc2OC)nc2cc(S(N)(=O)=O)ccc21,,active: 25.1 µM
O=C1ON=C(c2ccccc2)/C1=C\c1ccco1,inactive: -4.01%,
O=C(N/N=C/c1ccc(-c2ccc(Cl)c(C(=O)O)c2)o1)c1cc2c(ccc3ccccc32)o1,,active: 11.2 µM
CCOc1ccc(NC(=O)C2CCN(S(=O)(=O)c3c(C)noc3/C=C/c3ccco3)CC2)cc1,inactive: 19.7%,
CCOc1ncccc1C(=O)OCC(=O)Nc1ccc(C(N)=O)cc1,inactive: 38.1%,
Nc1nc(=S)c2ncn([C@@H]3O[C@H](CO)[C@@H](O)[C@H]3O)c2[nH]1,inactive: -3.02%,
Cc1cc(C)c(NC(=O)Cn2c(=O)c3cccn3c3ccccc32)c(C)c1,inactive: -20.2%,
O=c1cc(-c2ccc(O)cc2)oc2cc(O)cc(O)c12,inactive: -21%,
